# According to PubChem BioAssay (NCATS):
# This list was built around the results that the source calls inconclusive (neither active nor inactive); the mix of calls is not that of the screen. For some of these results: Potencies beside an inconclusive call are fits to weak or partial responses and may not hold up. Calls of active or inactive are those of the source. Unless noted, calls come from the whole dose curve; as a rule, active = well fitted curve in the direction sought with a large enough effect; inconclusive = small, poorly fitted or top-dose-only effect, or another doubt; inactive = no such curve, though single readings can be large; an effect the other way counts as inactive or inconclusive.
# Experiments:
# [1] = target: Rap guanine nucleotide exchange factor 3 (Homo sapiens) (UniProt O95398); assay: Confirmatory qHTS for antagonist of cAMP-regulated guanine nucleotide exchange factor 3 (EPAC1) (AID 1645880); settings: EPAC1 Rap1B-BODIPY-GDP exchange, fluorescence; series mostly up to 115 µM; note: nearly all actives have a fitted effect of over 55% in size
# UniProt O95398, sequence (O95398 whole entry, looked up): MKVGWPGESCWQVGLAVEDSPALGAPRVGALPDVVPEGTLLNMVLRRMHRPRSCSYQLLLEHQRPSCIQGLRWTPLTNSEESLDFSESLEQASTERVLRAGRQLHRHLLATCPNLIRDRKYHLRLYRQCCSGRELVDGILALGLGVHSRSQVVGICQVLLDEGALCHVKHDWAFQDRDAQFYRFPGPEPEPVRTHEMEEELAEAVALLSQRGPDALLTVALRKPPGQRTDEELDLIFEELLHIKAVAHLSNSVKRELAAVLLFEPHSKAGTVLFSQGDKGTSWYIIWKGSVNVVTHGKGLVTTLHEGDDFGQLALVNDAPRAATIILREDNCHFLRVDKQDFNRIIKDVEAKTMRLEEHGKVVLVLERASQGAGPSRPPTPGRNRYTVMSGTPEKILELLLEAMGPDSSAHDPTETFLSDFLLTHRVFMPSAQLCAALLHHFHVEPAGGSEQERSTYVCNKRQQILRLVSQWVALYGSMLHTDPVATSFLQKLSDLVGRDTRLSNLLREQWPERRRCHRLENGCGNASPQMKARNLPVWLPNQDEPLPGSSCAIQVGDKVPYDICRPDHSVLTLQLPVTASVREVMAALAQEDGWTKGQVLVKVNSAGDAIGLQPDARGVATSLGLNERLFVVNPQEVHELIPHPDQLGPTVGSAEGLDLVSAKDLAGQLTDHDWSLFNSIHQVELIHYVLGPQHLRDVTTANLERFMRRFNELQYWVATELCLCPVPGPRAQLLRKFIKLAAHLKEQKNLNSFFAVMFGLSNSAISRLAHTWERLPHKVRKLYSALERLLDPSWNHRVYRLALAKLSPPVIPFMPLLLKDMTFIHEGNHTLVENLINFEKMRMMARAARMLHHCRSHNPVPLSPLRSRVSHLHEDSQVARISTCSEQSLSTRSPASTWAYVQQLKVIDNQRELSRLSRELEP
# Outline: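 Released BODIPY-GDP fluoresces less than Rap1-bound BODIPY-GDP; the signal is followed at 480/540 nm at 5-min intervals over 30 min, after 5 min at room temperature. Reactions contain 100 nM EPAC1, 250 nM RAP1B-BODIPY-GDP and 50 uM GDP; results are normalized to ATA and DMSO.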
# [2] = target: Rap guanine nucleotide exchange factor 4 (Homo sapiens) (UniProt Q8WZA2); assay: Confirmatory qHTS for antagonist of cAMP-regulated guanine nucleotide exchange factor 4 (EPAC2) (AID 1645885); settings: EPAC2 Rap1B-BODIPY-GDP exchange fluorescence, biochemical; activity change, negative = inhibition: at 114 µM (top of the series) unless noted; series mostly up to 114 µM; note: nearly all actives have a fitted effect of over 25% in size
# [3] = target: Thioredoxin reductase 1, cytoplasmic (Rattus norvegicus) (UniProt O89049); assay: qHTS Assay for Inhibitors of Mammalian Selenoprotein Thioredoxin Reductase 1 (TrxR1) (AID 488773); settings: purified TrxR1 enzyme activity; Potency: inhibition; series mostly up to 57.1 µM; note: nearly all actives have a fitted effect of over 40% in size
# UniProt O89049, sequence (O89049 whole entry, looked up): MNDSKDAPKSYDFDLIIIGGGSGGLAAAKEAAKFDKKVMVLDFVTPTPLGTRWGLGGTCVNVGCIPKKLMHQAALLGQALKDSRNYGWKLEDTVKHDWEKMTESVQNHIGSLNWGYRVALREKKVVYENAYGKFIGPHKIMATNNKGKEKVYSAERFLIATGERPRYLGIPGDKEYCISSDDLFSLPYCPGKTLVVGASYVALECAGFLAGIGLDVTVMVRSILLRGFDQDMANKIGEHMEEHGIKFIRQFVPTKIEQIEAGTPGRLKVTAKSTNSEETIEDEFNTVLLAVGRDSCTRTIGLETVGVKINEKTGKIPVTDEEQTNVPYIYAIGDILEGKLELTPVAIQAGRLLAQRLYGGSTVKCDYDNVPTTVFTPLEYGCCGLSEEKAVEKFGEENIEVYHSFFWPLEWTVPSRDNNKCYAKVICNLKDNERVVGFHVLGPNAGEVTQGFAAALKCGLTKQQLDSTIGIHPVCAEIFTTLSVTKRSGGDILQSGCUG
# Outline: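 Inhibition is scored from the loss of NADPH fluorescence between first and last reads of an 8-min kinetic run. Selenite (400 uM) was the substrate, added after 15 min compound preincubation at room temperature.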
# [4] = target: D(1A) dopamine receptor (Homo sapiens) (UniProt P21728); assay: HTS Assay for Allosteric Agonists of the Human D1 Dopamine Receptor: Primary Screen for Antagonists (AID 488983); settings: D1 receptor cell assay, antagonist mode, qHTS titration; series mostly up to 41.8 µM;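 note: calcium flux response to an EC80 dopamine challenge measured with no-wash dye; nearly all actives have a fitted effect of over 65% in size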
# UniProt P21728, sequence (P21728 whole entry, looked up): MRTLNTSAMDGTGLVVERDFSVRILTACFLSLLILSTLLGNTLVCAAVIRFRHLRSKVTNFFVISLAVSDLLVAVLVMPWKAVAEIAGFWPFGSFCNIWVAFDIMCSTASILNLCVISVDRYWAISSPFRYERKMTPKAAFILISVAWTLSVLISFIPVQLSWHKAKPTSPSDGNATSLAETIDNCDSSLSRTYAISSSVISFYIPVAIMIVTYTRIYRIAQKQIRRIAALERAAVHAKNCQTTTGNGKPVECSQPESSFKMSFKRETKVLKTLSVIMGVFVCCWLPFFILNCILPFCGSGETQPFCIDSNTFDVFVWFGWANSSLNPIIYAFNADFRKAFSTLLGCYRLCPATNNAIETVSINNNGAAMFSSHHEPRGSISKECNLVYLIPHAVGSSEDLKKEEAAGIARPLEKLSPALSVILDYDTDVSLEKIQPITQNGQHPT
# Outline: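 In this primary screen, compounds are applied to calcium-dye-loaded HEK293 T-REx cells with force-coupled D1 expression induced overnight at 30 C. An EC80 of dopamine follows the 180 s compound phase, and calcium is monitored for a further 180 s.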
# [5] = target: ATPase family AAA domain-containing protein 5 (Homo sapiens) (UniProt Q96QE3); assay: Validation screen for small molecules that inhibit ELG1-dependent DNA repair in human embryonic kidney (HEK293T) cells expressing luciferase-tagged ELG1 (AID 493107); settings: HEK293T ELG1-luciferase level, luminescence, 5-fluorouridine co-treatment, 16 h; series mostly up to 46.1 µM; note: nearly all actives have a fitted effect of over 70% in size
# UniProt Q96QE3, sequence (Q96QE3 whole entry, looked up, the tested form may be a part): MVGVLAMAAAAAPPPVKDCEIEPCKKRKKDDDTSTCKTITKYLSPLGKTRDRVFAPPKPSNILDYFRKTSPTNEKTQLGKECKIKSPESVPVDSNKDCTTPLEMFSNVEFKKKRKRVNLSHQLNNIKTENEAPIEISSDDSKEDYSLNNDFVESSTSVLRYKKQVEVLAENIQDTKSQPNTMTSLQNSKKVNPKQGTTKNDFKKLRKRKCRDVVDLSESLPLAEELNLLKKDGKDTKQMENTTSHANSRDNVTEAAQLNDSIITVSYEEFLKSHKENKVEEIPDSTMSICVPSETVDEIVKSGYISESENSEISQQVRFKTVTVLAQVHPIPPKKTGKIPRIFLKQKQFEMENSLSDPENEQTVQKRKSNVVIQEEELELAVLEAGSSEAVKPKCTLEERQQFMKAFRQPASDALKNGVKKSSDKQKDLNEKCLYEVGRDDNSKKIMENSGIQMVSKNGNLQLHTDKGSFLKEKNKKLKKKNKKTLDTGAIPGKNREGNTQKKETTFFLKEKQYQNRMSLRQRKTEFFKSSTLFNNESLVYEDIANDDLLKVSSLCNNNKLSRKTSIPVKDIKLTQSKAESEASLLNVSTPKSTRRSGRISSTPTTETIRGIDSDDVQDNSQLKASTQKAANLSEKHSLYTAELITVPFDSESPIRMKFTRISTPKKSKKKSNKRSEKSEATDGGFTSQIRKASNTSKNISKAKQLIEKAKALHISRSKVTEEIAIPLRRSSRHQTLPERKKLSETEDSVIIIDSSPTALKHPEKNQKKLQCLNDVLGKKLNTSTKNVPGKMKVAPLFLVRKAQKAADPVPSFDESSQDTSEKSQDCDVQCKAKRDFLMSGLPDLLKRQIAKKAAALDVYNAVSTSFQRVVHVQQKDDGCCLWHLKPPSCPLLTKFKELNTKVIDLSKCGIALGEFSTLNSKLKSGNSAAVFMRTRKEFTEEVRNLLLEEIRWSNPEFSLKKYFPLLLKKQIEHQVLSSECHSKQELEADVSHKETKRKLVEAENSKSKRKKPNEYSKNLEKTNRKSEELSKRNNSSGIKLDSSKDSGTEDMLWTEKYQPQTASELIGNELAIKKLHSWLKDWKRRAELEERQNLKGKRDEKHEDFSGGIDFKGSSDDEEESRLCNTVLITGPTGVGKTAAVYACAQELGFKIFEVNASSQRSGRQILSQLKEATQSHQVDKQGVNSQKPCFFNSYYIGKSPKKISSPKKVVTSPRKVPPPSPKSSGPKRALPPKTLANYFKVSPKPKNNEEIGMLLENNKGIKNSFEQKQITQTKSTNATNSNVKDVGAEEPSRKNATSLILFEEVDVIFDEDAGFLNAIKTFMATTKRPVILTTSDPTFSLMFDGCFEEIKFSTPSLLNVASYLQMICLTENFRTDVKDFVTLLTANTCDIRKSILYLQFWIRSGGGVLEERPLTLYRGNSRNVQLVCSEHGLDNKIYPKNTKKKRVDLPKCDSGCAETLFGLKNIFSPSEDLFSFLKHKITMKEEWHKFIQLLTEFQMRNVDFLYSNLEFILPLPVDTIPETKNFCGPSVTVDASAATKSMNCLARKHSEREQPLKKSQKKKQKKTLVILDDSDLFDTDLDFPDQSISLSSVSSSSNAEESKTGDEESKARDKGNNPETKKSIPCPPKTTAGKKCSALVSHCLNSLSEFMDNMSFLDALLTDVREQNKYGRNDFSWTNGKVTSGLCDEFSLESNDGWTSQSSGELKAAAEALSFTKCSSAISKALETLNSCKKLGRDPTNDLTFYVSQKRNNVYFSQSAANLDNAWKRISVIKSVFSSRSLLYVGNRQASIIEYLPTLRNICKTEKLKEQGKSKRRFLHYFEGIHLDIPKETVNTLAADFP
# Outline: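 Compounds reducing 5-fluorouridine-driven ELG1-luciferase signal in HEK293T cells were scored; exposure lasted 16 hr at 37 °C with luminescence detected via ONE-Glo.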
# [6] = Cell Viability qHTS for small molecule stabilizers of the endoplasmic reticulum resident proteome (AID 1508629); settings: cell viability counter-screen, 100 nM thapsigargin for final 4 h;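 note: compound exposure about 46 h in total before the viability read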
# [7] = target: Nucleoprotein (Lymphocytic choriomeningitis virus (strain Armstrong)) (UniProt P09992); assay: qHTS for Inhibitors of the Functional Ribonucleoprotein Complex (vRNP) of Lymphocytic Choriomeningitis Arenaviruses (LCMV): LCMV Primary Screen - GLuc reporter signal (AID 1347086; calls by dose curve; note: nearly all actives have a fitted effect of over 70% in size); settings: LCMV minigenome vRNP cell assay, Gaussia luciferase reporter; activity change, negative = inhibition: at 57.5 µM (top of the series) unless noted
# UniProt P09992, sequence (P09992 whole entry, looked up): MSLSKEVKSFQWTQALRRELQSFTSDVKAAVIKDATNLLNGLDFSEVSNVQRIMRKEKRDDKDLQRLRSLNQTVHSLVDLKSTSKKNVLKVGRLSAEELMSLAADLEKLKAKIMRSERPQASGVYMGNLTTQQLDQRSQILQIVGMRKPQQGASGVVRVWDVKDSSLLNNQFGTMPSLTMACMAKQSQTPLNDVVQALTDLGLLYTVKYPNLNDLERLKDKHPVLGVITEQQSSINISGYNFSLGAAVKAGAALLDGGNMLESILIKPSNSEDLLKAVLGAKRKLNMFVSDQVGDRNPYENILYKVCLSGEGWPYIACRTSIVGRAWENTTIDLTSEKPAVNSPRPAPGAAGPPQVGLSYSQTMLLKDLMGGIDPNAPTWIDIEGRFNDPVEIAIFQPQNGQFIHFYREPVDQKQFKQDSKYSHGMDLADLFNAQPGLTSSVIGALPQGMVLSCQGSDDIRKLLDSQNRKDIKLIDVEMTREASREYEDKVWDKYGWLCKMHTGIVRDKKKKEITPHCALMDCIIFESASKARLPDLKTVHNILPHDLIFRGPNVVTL
# [8] = Cell Viability - SK-N-SH (AID 435; calls by dose curve;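 note: compound exposure lasted 40 h at 37 °C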); settings: SK-N-SH neuroblastoma cell viability qHTS
# Outline: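 SK-N-SH neuroblastoma cells (1500/well) treated 40 h at 37 °C in complete medium; viability read as cellular ATP by CellTiter-Glo luminescence. Normalized to DMSO and 100 uM tamoxifen; AC50 from Hill fits of qHTS concentration-response.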
# [9] = qHTS Assay for Identification of Small Molecule Agonists for Thrombopoietin (TPO) Signaling Pathway (AID 917); settings: TPO signaling pathway reporter cells, agonist qHTS; series mostly up to 38.5 µM
# Outline: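 Stimulation at the TPO EC50 (26 pM final) was used to detect activators. Ba/F3 mouse cells bearing human TPO receptor and a luciferase reporter under the Glycoprotein IIb promoter were exposed to compounds for 24 hrs at 37 C.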
# [10] = qHTS assay for small molecule agonists of the antioxidant response element (ARE) signaling pathway measured by Nrf2-dependant transcriptional activity (AID 720636; active = well fitted curve in the direction sought with a large enough effect in the repeat runs; inconclusive = weak or mixed curves; inactive = no such curve, though single readings can be large; an effect the other way counts as inactive or inconclusive); settings: ARE-luc HepG2, Nrf2 luciferase reporter, 16 h; series mostly up to 92.4 µM
# Outline: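 Reporter gene assay, HepG2 ARE-luc: 16 hr compound, 37 C, 5% CO2; read-out luciferase luminescence.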
# Potency is the fitted concentration of half-maximal effect; tags give direction and shape of the fitted curve.
smiles,measurement,setting,value
CCCCCc1cc(O)c2c(c1)OC(C)(C)[C@@H]1CCC(C)=C[C@@H]21,Potency,[1],"inconclusive: 55.9 µM [inhibitor, partial curve, poor fit]"
same,Potency,[2],"inconclusive: 55.5 µM [inhibitor, single point]"
CC(C)[C@@]1(NC(=O)[C@@H]2C[C@@H]3c4cccc5[nH]cc(c45)C[C@H]3N(C)C2)O[C@@]2(O)[C@@H]3CCCN3C(=O)[C@H](Cc3ccccc3)N2C1=O,Potency,[3],"inconclusive: 26.7 nM [inhibitor, full curve, poor fit]"
same,Potency,[4],active: 5.62 µM
same,Potency,[5],"inconclusive: 6.51 µM [activator, partial curve, poor fit]"
same,Potency,[6],"inconclusive: 158 nM [rising, full curve]"
CC(=O)O[C@H]1C[C@H](O[C@H]2[C@@H](O)C[C@H](O[C@H]3[C@@H](O)C[C@H](OC4CC[C@@]5(C)C(CC[C@@H]6[C@@H]5CC[C@]5(C)[C@@H](C7=CC(=O)OC7)[C@@H](O)C[C@]65O)C4)O[C@@H]3C)O[C@@H]2C)O[C@H](C)[C@H]1O[C@@H]1O[C@H](CO)[C@@H](O)[C@H](O)[C@H]1O (stereo not given in full),Potency,[7],"inconclusive: 1.26 µM [inhibitor, full curve, poor fit]"
O=Cc1ccccc1,Potency,[8],inactive: > 92 µM
C[N+]1(C)[C@@H]2CC[C@H]1CC(OC(=O)c1c[nH]c3ccccc13)C2 (stereo not given in full),Potency,[9],"inconclusive: 10 µM [inhibitor, partial curve] [stimulated with TPO at its EC50]"
C#CCN1CC(=O)N(COC(=O)C2C(C=C(C)C)C2(C)C)C1=O (stereo not given),Potency,[10],"inconclusive: 19.3 µM [activator, partial curve, poor fit]"
